# In the supplement of paper PMC3334620:
# The full ranking holds about 33,000 sequences; the median of “E-score (-0.5 to 0.5)” is about -0.017, and the highest 2% start at about 0.3. Some of the results follow.
# Target: T1, Sut1 (UniProt P53032)
# T1 sequence: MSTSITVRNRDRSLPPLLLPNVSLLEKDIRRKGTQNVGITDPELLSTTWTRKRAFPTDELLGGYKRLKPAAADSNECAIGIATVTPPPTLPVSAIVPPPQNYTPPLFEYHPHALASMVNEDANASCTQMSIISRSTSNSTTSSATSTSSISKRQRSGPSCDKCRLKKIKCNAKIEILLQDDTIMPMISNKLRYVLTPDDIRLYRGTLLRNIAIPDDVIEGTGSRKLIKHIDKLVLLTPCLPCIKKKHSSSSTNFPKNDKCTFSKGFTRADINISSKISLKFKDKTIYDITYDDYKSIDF
# Assay: PBM E-score (8-mer binding enrichment) (E-score (-0.5 to 0.5)); higher = stronger / more preferred TF binding; most listed sequences are background and not binding sites
# Conditions: protein concentration: 200 nM; construct: GST-full length
# Procedure, shortened: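 Detection of bound protein used fluorescent anti-GST, with scans normalised by masliner. The proteins were GST-tagged yeast transcription factors applied at about 100-200 nM to universal all-10-mer Agilent arrays made double-stranded by primer extension. Each ungapped eight-base word, pooled with its reverse complement, was scored with an E-score from the Universal PBM Analysis Suite.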
row,Sequence,PBM E-score
1,ATGGTTTG,0.0969
2,GAACACCC,-0.183
3,GCGACAGA,-0.286
4,CTACAAAA,0.267
5,GCAGCTGA,-0.0863
6,AATCTTTG,0.116
7,TTGTACAA,0.182
8,AGGTAAAA,0.061
9,GGGTGCCA,-0.215
10,TGCTCCCA,-0.0682
11,AGCCACCG,-0.122
12,CTAGGTCC,0.193
13,AATCGGAG,0.396
14,CTAGATAC,0.0478
15,AAAACTAT,0.231
16,CAAGACAA,-0.00391
17,AATTTATC,0.258
18,AGTAAAGA,0.193
19,ACCTGGAC,-0.199
20,CTCAGGTA,-0.179
21,ACGGCTCC,0.0716
22,GAGGCCTC,-0.235
23,ACAACGAC,0.116
24,ATTAATAC,0.179
25,CCTAGGCA,-0.15

row,Sequence,PBM E-score
1,CAGTAAAC,0.101
2,ATGTACTG,0.0119
3,ACGTTAGC,-0.0242
4,TAAGGTGA,-0.0574
5,AAGTCCTG,-0.103
6,ACGCAGGC,-0.223
7,CGAAGTAG,0.0818
8,CTTTACGA,0.0369
9,CGGTACCA,-0.118
10,ATATTAAA,0.37
11,CCTGAAGC,-0.263
12,TGTTAAAA,0.218
13,AAAAAGGA,0.204
14,GGTGAGCA,-0.156
15,CATAGCAA,0.0177
16,CTCGTAAG,0.115
17,GCATGTAC,-0.201
18,CGGCTGAG,-0.165
19,CTCCCGAG,-0.264
20,AGCTTATC,-0.00535
21,CGAGTGCA,-0.0162
22,CCTTACTC,0.0971
23,AGGCGGAT,0.0628
24,GCGGTGGA,-0.043
25,CACTTCTC,-0.0913

row,Sequence,PBM E-score
1,ATTGCGAC,0.0862
2,GACTGCCC,-0.199
3,GATGGAGC,-0.232
4,AAGGCTAA,0.0404
5,ATGAATCG,-0.0757
6,GAAAGCAC,-0.0213
7,GATTACGA,0.184
8,AGCGGGAC,-0.151
9,ACACTTAG,-0.0396
10,GCAGTGGA,-0.0987
11,CCTGCAGA,-0.0521
12,GCGTCGTA,0.109
13,CACAATGC,0.0849
14,AACCGCCC,-0.241
15,ACATTCTG,-0.0619
16,CAAGAGTC,0.00463
17,CCCAGATC,-0.244
18,GTTTGTAA,0.154
19,CAGACAAA,0.0809
20,CACTGGGG,-0.262
21,ATGGAAAC,0.00872
22,GCATAACC,-0.1
23,ATACCCGG,-0.239
24,CCTAACTA,0.132
25,CGCTCCCA,-0.0881

row,Sequence,PBM E-score
1,CTACACAA,0.118
2,GGCACCCA,-0.214
3,CCTCCATA,-0.235
4,ATAGCCGG,0.104
5,AAAGCGTT,0.063
6,CCCGTAGG,-0.295
7,CGAGTTAG,0.0357
8,GACAGGGA,-0.166
9,CAGGCGAA,-0.158
10,AGCGGGGG,-0.335
11,AATAGTAA,0.19
12,ATGGCCCG,-0.169
13,AAGGCTCA,-0.0689
14,AAGTTGCC,0.0144
15,GCTGACAC,-0.0384
16,ACATCATG,-0.119
17,AGGGGTCA,-0.198
18,CATTCGTA,0.096
19,TACTCTAA,0.0967
20,AGAGCCCT,-0.131
21,TGACGGAA,0.111
22,CCTGCAAG,-0.293
23,CGAAGACA,0.00531
24,AGGCACTG,-0.0816
25,CCACTGGC,-0.158

row,Sequence,PBM E-score
1,GCAAATTA,0.133
2,AACGCGCT,0.0554
3,GCGATAAA,0.0442
4,CGGCGAGC,-0.0558
5,ACTGGGAG,-0.227
6,GACTAGGA,-0.052
7,CGATCAAG,0.0132
8,AGTTACTA,0.0836
9,GAGCAACA,-0.0192
10,CTGGCCTA,-0.299
11,CACGGCTA,-0.123
12,AGGGCTAA,-0.0653
13,ACTAGCTA,0.0184
14,ACGAGAGC,-0.103
15,GCGAGATA,0.0704
16,AACTATCG,0.00516
17,TCGGACCA,0.201
18,CTATGACC,-0.0195
19,GCGCTTTA,-0.0225
20,CCTTTCGA,0.00417
21,CGCTTCAA,0.183
22,AGTTCTTC,0.0133
23,ATCTTTTG,0.0364
24,ACTACACG,-0.0104
25,ACATGCCG,-0.0326

row,Sequence,PBM E-score
1,TATGGGGA,0.0437
2,AAGGACGT,-0.0097
3,ATCATAGA,0.162
4,ATCGGTAC,0.0811
5,TAGCGCTA,-0.13
6,CTGGCTTC,-0.15
7,ACGAAAAC,0.133
8,CTATCGTC,-0.156
9,CAAAACTG,0.0319
10,ATCCCAAC,-0.134
11,AAGCGGCT,0.0849
12,AAAGTCGT,0.131
13,ACAGGCGA,-0.077
14,CTAGTAAA,0.204
15,ATTAAACG,0.24
16,CGACTGCC,-0.217
17,GACCTTCA,-0.075
18,ACAGCTCG,-0.087
19,AGCAGCCG,-0.165
20,AGAATGCG,-0.0543
21,ATCTCGCA,0.175
22,TCAGCCAA,-0.0208
23,AAGACTAA,0.0716
24,GTTTAAAA,0.19
25,AATGTGAG,0.13

row,Sequence,PBM E-score
1,TGATGGAA,0.0273
2,ATGTCACA,0.0421
3,CGCGTCAC,-0.162
4,CTCTTGGC,-0.314
5,CCTTTGAC,-0.125
6,GAAGCTGC,-0.265
7,CCAACTTA,0.155
8,GCCATTGA,0.172
9,ATTTCAGG,0.00587
10,AAGTGACC,-0.0256
11,ATGTTGGC,-0.0785
12,CGAAGGCA,-0.06
13,CGACAGCG,-0.0323
14,TACGAATA,0.227
15,AGGCATTG,-0.0771
16,ACACCCAA,0.103
17,AGTATCGA,0.145
18,GGACACTA,-0.0784
19,CGCACTGA,-0.155
20,ACAGGACA,0.0807
21,ACCCGCCG,0.00658
22,GCTAAGGA,-0.171
23,AGACTAGC,-0.153
24,CTAGCGTA,-0.175
25,AAGTTGCT,0.00535

row,Sequence,PBM E-score
1,ACTTTTGC,0.102
2,ACCTGTTA,-0.0601
3,CTCACCGA,0.0883
4,GTACCTAC,-0.299
5,GGTGTTCA,-0.12
6,AGGTGACC,-0.0761
7,CGAGCTGA,0.00817
8,AGCAGCAT,0.0143
9,TCCTGGAA,-0.281
10,GATGTATA,0.0593
11,ACTACTCC,0.226
12,CCCACACC,-0.276
13,CCAAGGGA,-0.31
14,ACCGACGC,-0.0813
15,CCGCGTAC,0.0711
16,AACTTCTG,0.0101
17,CCTTCACA,-0.0308
18,CACGGCGA,-0.0261
19,AATCGAGC,-0.105
20,ACACCAAG,-0.144
21,CTGACGGA,0.0818
22,ATCTGCAC,-0.145
23,GCTGGATA,-0.158
24,CATGTAGA,-0.0225
25,GACTTTCC,0.0329

row,Sequence,PBM E-score
1,AGACGATG,-0.00954
2,ATCCGACA,0.0788
3,CGTGACAG,-0.102
4,CACCACAC,-0.103
5,CAACATTG,0.111
6,CCGAAGCA,0.0853
7,AGCGCGGG,-0.109
8,AACCGTCC,-0.109
9,ATTAAGAG,0.115
10,ACCAGCCC,0.052
11,GATGCCAC,-0.116
12,GGTGTATA,-0.24
13,ACCTTAAC,0.0855
14,AGTTTCGC,-0.031
15,GCGGTGCC,-0.194
16,GATGCCTA,-0.136
17,CACTAGTA,0.119
18,GACTTACA,0.104
19,ACCTATAA,0.0347
